Laboratory results: PubChem BioAssay AID485344 (National Center for Advancing Translational Sciences (NCATS), 2010)
“And” between values parts separate entries of the source, which are not always exact repeats. Equal values may be shown once. Out of some 340,000 compounds screened, about 6,900 (2%) were called active. Rule as the data show it: active = inhibition above about 30%; inactive = below that, where a call was filed. This is a selection; strong and weak results do not stand in their true shares. Where no call is shown, the source filed none.

target: D(2) dopamine receptor (Homo sapiens) (UniProt P14416); experiment: HTS Assay for Allosteric Antagonists of the Human D2 Dopamine Receptor: Primary Screen for Antagonists; details: HEK293 TREx D2 cells, calcium flux, dopamine EC80; at 10 µM; stronger effect = higher value; also: 0% is about no effect
Procedure, shortened: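 Compounds are added to dye-loaded, induced HEK293 T-REx cells coupled to calcium release via D2; after a 3 min kinetic read an EC80 dopamine stimulus is given and fluorescence is recorded for 3 more min.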

Chain of UniProt P14416 (P14416 whole entry, looked up): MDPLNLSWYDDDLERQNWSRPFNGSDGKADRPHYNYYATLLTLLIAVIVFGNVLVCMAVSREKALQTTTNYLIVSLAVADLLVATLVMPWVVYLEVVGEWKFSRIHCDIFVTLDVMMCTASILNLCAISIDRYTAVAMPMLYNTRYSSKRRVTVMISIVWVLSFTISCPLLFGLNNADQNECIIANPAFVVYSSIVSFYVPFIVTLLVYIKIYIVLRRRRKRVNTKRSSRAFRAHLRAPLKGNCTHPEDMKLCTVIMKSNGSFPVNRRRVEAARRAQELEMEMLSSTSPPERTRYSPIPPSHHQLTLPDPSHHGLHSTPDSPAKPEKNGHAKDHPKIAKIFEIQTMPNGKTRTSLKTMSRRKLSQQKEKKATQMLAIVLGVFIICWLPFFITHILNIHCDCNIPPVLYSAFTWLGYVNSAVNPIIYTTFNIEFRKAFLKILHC

SMILES	inhibition
Cc1cccc(NCc2nc3ccccc3n2CCOc2ccccc2C)c1	-3.71%
COc1ccc(NC(=O)c2c(C)oc3ccc(O)c(CN4CCCC4)c23)cc1Cl	4.3%
COc1cc(C(=O)n2nc(-c3ccco3)nc2NCc2ccc(Cl)cc2)cc(OC)c1OC	-6.16%
Cc1ccc(Nc2nc(N)nc(CN3CCN(C(=O)c4ccco4)CC3)n2)cc1Cl	active: 38.5%
CC(=O)c1cccc(Nc2ccc3cc(S(=O)(=O)N4CCC(C)CC4)ccc3n2)c1	1.81%
CCOC(=O)c1c(NC(C)=O)sc2c(O)c(Br)cc(Br)c12	active: 36.2%
O=C(CCN1CCN(c2ccccc2F)CC1)Nc1ccccc1Cl	active: 87.8%
CC(=O)c1ccc(NS(=O)(=O)c2cc(-c3cc(C)no3)ccc2C)cc1	-14%
CCCNC(=O)CCNS(=O)(=O)c1ccc2c(c1)c(=O)n(C)c(=O)n2C	4.95%
CC(C)c1ccc(-c2nnc3n(CCc4ccccc4)c(=O)c4ccccc4n23)cc1	21.6%
Cc1ccc(CNC(=O)CCc2c(C)nc3nc(CNC(=O)OC(C)(C)C)nn3c2C)cc1	8.41%
CCCOc1ccc(C(=O)Nc2cccc(NC(=O)c3cccc(Cl)c3)c2)cc1	3.5%
CCS(=O)(=O)c1ncc(N(Cc2ccco2)Cc2sccc2C)c(C(=O)Nc2ccc(C)cc2C)n1	3.33%
CCC12CN3CC(C)(CN(C1)C3c1c[nH]c3ccccc13)C2=O (stereo unspecified)	4.22%
CC1=C(C(=O)Nc2ccc(C)cc2C)C(c2ccc(O)cc2)n2nnnc2N1 (stereo unspecified)	6.61%
COc1ccc(/C=C\c2onc(C)c2S(=O)(=O)N2CCC(C(=O)Nc3ccc(C)cc3C)CC2)cc1	14.7%
CCOC(=O)c1c(C)[nH]c(C)c1C(=O)CSc1nc(N)cc(N)n1	active: 49.1%
O=C(Nc1ccc(F)cc1Cl)n1ncc2cc(Cl)ccc21	2.15%
CCC(=O)N1CCc2cc(S(=O)(=O)NC(CC(C)C)C(=O)Nc3cc(C)ccc3OC)ccc21 (stereo unspecified)	15.8%
CCOc1ccc(C(=O)NCc2ccc3c(c2)CCN3C(=O)c2ccccc2)cc1	19.9%
COc1cccc(C(=O)Nc2cccc(OCc3cc(=O)n4cc(C)ccc4n3)c2)c1	-2.53%

SMILES	inhibition
CCc1ccc(CNC(=O)c2ccc3c(c2)nc2n3CCC(C)C2)cc1 (stereo unspecified)	9.01%
COc1ccc(-c2onc(C)c2C)cc1S(=O)(=O)NCc1ccco1	-5.62%
COc1ccc(C)cc1NC(=O)CN(c1ccccc1)S(=O)(=O)N(C)C	4.68%
CCCCc1nn2c(=O)cc(COC(=O)COc3ccc(C)cc3)nc2s1	-4.96%
CCOC(=O)CN1C(=O)c2ccccc2Sc2ncccc21	5.29%
COc1ccc(NC(=O)CN2C(=O)COc3ccc(S(=O)(=O)Nc4ccccc4)cc32)cc1	7.56%
CCCCc1nn2c(=O)cc(COC(=O)c3cccc(OC)c3)nc2s1	21.7%
COc1ccccc1N(CC(=O)NCCSCc1ccccc1)S(C)(=O)=O	-8.67%
COc1ccc(-c2cc(C(F)(F)F)nc(SCC(=O)NCc3ccc(OC)c(OC)c3)n2)cc1	-8.23%
CCc1nnc2c(Nc3cccc(C(C)=O)c3)nc3ccccc3n12	8.8%
COc1cccc(-c2cn3c(n2)sc2cc(C(=O)NCc4ccccc4F)ccc23)c1	16.5%
CCOC(=O)c1cc(-c2ccccc2)n(CC(=O)NCc2ccc(C)cc2)c1C	-7.38%
Cc1ccc2nc(-c3cccc(NC(=O)c4cccc5c(Cl)cccc45)c3)oc2c1	12.8%
CCOC(=O)c1c(C)oc2nc(C)nc(NCC3CCN(Cc4ccccc4C)CC3)c12	26.5%
O=C(NCC(c1cccnc1)N1CCOCC1)C(=O)Nc1ccc(Cl)cc1 (stereo unspecified)	2.59%
Cc1cccc(-c2nc(CS(=O)CC(=O)NCc3ccc(Cl)cc3)c(C)o2)c1 (stereo unspecified)	22.8%
O=C1CN(C(=O)c2ccc(S(=O)(=O)N3CCCCC3)cc2)C(c2ccc(F)cc2)c2cc(Cl)ccc2N1 (stereo unspecified)	-13.7%
CCN(CC)CCn1c(=N)n(CCOc2ccccc2Cl)c2ccccc21	13.5%
COc1ccc(C2=C(C)C(=O)N(Cc3ccc(C(=O)Nc4ccc(F)cc4C)cc3)S2(=O)=O)cc1	-13.4%
O=C(NCCc1ccccc1)c1ccc(CSc2nc3cccnc3n2Cc2ccccc2F)cc1	-11.3%
Cc1c(Cl)cccc1NC(=O)CSc1nc(=O)[nH]c2c1CCCC2	16%

SMILES	inhibition
O=C(Nc1ccc2c(c1)C(=O)OC2)c1ccc(C(F)(F)F)cc1	active: 33.7%
O=C(NCCC1=CCCCC1)C1CCN(C(=O)N2CCOc3ccccc32)CC1	0.392%
COc1ccc(OC)c(NC(=O)Cn2ncc3c2-c2ccccc2OC3)c1	-11.3%
Cc1ccc(-n2c(=O)c3cccnc3n2CC(=O)Nc2ccc(C)cc2Cl)cc1	11.9%
COc1cc(CSc2ncc(CO)n2Cc2ccc(C)cc2)cc(OC)c1	24.3%
COc1ccc(CNC(=O)CCCN2C(=O)CCn3nc(-c4cn(C)c5ccccc45)cc32)cc1	-10.5%
Cc1nc(-c2ccc(F)cc2)sc1CCNC(=O)c1ccc(OC(C)C)cc1	4.26%
CCOc1ccc(-c2cn3c(n2)sc2cc(C(=O)N4CCCC(C)C4)ccc23)cc1 (stereo unspecified)	3.95%
CCN1CCN(C(=O)c2ccc3c(c2)N(Cc2ccccc2)C(=O)c2ccccc2S3(=O)=O)CC1	-4.19% and active: 40.4%
CC(C)Cc1nn2c(=O)cc(COC(=O)c3cccc(NS(C)(=O)=O)c3)nc2s1	-7.74%
Cc1nc(N2CCOCC2)c2c(C(=O)N(C)c3ccccc3)c(C)oc2n1	-0.529%
Cc1cc(C)cc(OCC(=O)N(Cc2ccc(Cl)cc2)C2CCS(=O)(=O)C2)c1 (stereo unspecified)	5.19%
COc1ccccc1CNC(=O)C1CCN(C2=NS(=O)(=O)C(c3ccc(C)c(C)c3)=C2C)CC1	23.2%
CC(=O)c1ccc(NC(=O)c2cc(S(=O)(=O)N3CCOCC3)ccc2C)cc1	1.42%
Cc1cc(N2CCN(c3ccccc3)CC2)n2cnnc2n1	-0.363%
COc1ccc(CCNC(=O)c2ccc(Cn3c(=O)c4ccccc4n(Cc4ccc(F)cc4Cl)c3=O)cc2)cc1OC	0.117%
O=C(NCc1ccc(Cl)cc1)c1ccc(CNS(=O)(=O)c2ccc(F)cc2)cc1	0.82%
CC(C)N1CCc2c(sc(NC(=O)c3ccc(S(=O)(=O)N(C)C4CCCCC4)cc3)c2C(N)=O)C1	18.1%
O=C(O)/C(=C\c1cccc(O)c1)c1ccc(S(=O)(=O)N2CCCC2)s1	active: 41.6%
